According to the supplement of paper PMC11417369:
Some of the results follow.

Test system: PfSIP2 AP2 domain 1 (GST-tagged)
Experiment: gcPBM binding intensity (ln(normalized median fluorescence intensity)); higher = stronger DNA binding
In short: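 DNA-binding domains from P. falciparum, fused to GST and produced in E. coli, were put on an Agilent 4 × 180k double-stranded probe array for 1 h in 1× PBS holding 1% milk, 0.2 mg/ml BSA, 0.5% salmon testes DNA and 0.03% Triton X-100. Probes were primer-extended, 36 bp long and drawn from intergenic genomic regions, with negative controls included. After Alexa488 anti-GST antibody detection and a 488 nm scan, binding intensity was set as the highest Masliner-normalised natural-log median intensity across replicate spots of either probe orientation.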

Sequence	gcPBM binding intensity (ln)
ATTACATAACAATATACACACTATTGATTAAAGAGA [CACACA_site5602]	6.99
ATAATATAAATAAAGCGTACTTAATTTTATATATAT [XGTACX_site4626]	7.17
TTTTTTTTTTTTTTTACACACTATAGGGAAAAAAAA [CACACA_site1916]	7.05
AAAAATATAATATATCTAAAATTTTTCATTAAATAT [XGTACX_negctrl_site274]	6.73
ACATATATATATTTATATATATATATATATATGTGA [CACACA_negctrl_site613]	7.44
ATAAATAAAAATACATGAACAGGTCAGGTTATTTTT [CACACA_negctrl_site1007]	6.67
TTATATATAGAATAAACATGCATTTGTATATGAATA [TGCATGCA_site604]	6.96
TCACATACATTACTTACACACCATATTAATATATAC [CACACA_site8047]	7.32
AATAAAAAATAAAAAATAAACAGTATACATATATAT [GTGCAC_negctrl_site31]	7.17
TGTATATAAACAAGGGGTACAATAATATAAATAAAT [XGTACX_site8675]	7.61
TCATATTAATTTGATAGTACATATACTTTGAAGTCC [XGTACX_site3767]	7.18
ATATATTTTATATGTGTGCACTATATATATATATAT	10.2
TATTTTATAATTTACCGTACATTAATTGTATTATTA [XGTACX_site5722]	6.99
ATATATTTTAAAGAAAGTACCCACCGTTTGAAGTCA [XGTACX_site2273]	7.33
ATTAATATATAACGTGCACACACACCGTTACGTATG [CACACA_site8543]	8.8
TGTTATATATATTGACTTAATAAATAAATAAATATA [GTGCAC_negctrl_site590]	6.83
TCTTATTTTATAAATATAAATATATATATATATATA [GTGCAC_negctrl_site479]	9.24
TTACAAAACACTTATACACACATATAAATATAAATA [CACACA_site7307]	7.26
CTCCTCATATAATTTTGTACATAAAAAATTACCATT [XGTACX_site3879]	7.31
TATTTTGCTCATCCATGTACACATAGATATATTTTA [XGTACX_site8244]	7.08
ATATTATGTGAAGAACGTACAAATTTTTACACTATA [XGTACX_site1485]	7.11
TTCTTTTCAGAAGGAAAGAATTATAACATATCATAA [XGTACX_negctrl_site548]	6.73

Sequence	gcPBM binding intensity (ln)
CTATAAATAACAGAAAGTACATATACATGGATATAT [XGTACX_site3317]	6.92
TTTCTAAATGTTTATATATATATATATATATAAATA [GTGCAC_negctrl_site397]	7.44
TAAAAGAAATAAGGTGCACACATATACATATATATA [CACACA_site8037]	11.8
AATATATCAAAAATTGGATAGTTTCTTATAAAAAAT [CACACA_negctrl_site39]	6.62
GTAAAAGTTAAAAAAACATGCAAAATTTAAAAAAAA [TGCATGCA_site637]	6.87
ATACATATATATATTCTACACACTTATAATATAATA [CACACA_site8782]	7.36
ACTATATTTGCCCTTTTAATCAGAACAAAAAAAAAA [CACACA_negctrl_site1051]	7.8
ATTATATTCCAAGTTTGTACATATATATAAAAGTAT [XGTACX_site1631]	7.32
AGTATAAAAATAAGCACACACACAAATATATATTTA [CACACA_site923]	7.24
ATAATATAAATATTAACACACATCCTTTTATGTATA [CACACA_site6685]	6.92
TTTTCTTTTACAAAGGGTACATAATTTAAATTCATA [XGTACX_site3876]	6.9
TTTCTTCTGCATTATGCACACTATAATTCGTTAAAA [CACACA_site5568]	8.08
AAAAAAAAAAAATCATGTACTTATTTTTCATTGTTG [XGTACX_site1542]	6.99
AAATAAGCATATACAAACATGCATACATATAAATAA [CACACA_negctrl_site246]	6.91
TATATGCACTTAATATGTACACAAAAAAAAAAAAAA [XGTACX_site6199]	8.72
TTTATATATTATACATGTACATATTTATTTATATAA [XGTACX_site3474]	7.11
CTTATATTAAAAACTTGTACACATGTTAAGAATTTT [XGTACX_site5857]	6.92
ATATTATAATTGAAGGTGCAAAATGTAATATAGATA [GTGCAC_site9661]	10.6
ATTATTATTTAAAAAAGTACATTGAAGTTCATAATA [XGTACX_site3575]	7.33
ATTCATTTTTTGGGGGGTACACCCTTTTAAACATTT [XGTACX_site4797]	8.41
TGAAATGATATATAAACACACATATATATATATATA [CACACA_site3511]	9.48
ATTTTTAATGTGATCACACATAAATATTATATATAT [CACACA_site5641]	7.34

Sequence	gcPBM binding intensity (ln)
GTATAAAAAAATATATGTACTTATTTACATATATAT [XGTACX_site4744]	7.17
CTGGAGTTAAAAATGTGTACCTAAAAAATTTTGTTC [XGTACX_site5554]	7.11
ATTATTATATATAAAACACACAATTTTGTTTTCACA [CACACA_site3965]	6.95
ATATAATAATATTAAAGTACATGCATATATATTTAT [XGTACX_site7422]	7.01
ACTATTTAAATGCAAAGTACTTTGATAATAAACAAT [XGTACX_site2608]	7.3
TAATATAACAAAAAAATAAAATAAAATAAAAAATAA [CACACA_negctrl_site109]	6.94
ATTTTTTAAAAAAACATACACACAAAAAAAAAAAAA [CACACA_site3936]	6.99
CATAATATCTCTTTGTGTACATATAGTTATTATTAT [XGTACX_site7688]	6.92
TATAAACATAAATATACACACAAACATATAGGTATT [CACACA_site6690]	6.87
CTTGTATATAAACACACACACACTTTCTTTTTTTAA [CACACA_site8602]	7.17
AAAAAAAAAAAAAAAAAAAAAAATATATATATATTT [GTGCAC_negctrl_site502]	8.51
ATTAATCAATATAGGCGTACAAAAAAAATAAATTAT [XGTACX_site1513]	7.12
CCCCTTAATTTATTTTGTACATATAATTTTTTTTTT [XGTACX_site3270]	7.21
GTATTTTTAAATGACACACACATATATAAATATGTA [CACACA_site6880]	7.02
ACAAAAATAAGCAAATGTACATATGTATAATATATT [XGTACX_site2492]	6.96
CGAACAAACAAATAAACACACAAAAAAAAATATATA [CACACA_site1825]	6.79
ATACTTATGATAAATACACACTTGAAATTAAGGATT [CACACA_site4772]	6.94
TTTTTTAAAAGATATATAATATGTATGAATATTCAA [XGTACX_negctrl_site380]	6.69
AATGTGAAAAAAAAAAGTACAGACCTAATCAAAAAA [XGTACX_site2486]	6.81
AAAAAAAATACATACACACACACACCCACATATATA [CACACA_site3561]	7.05
AATATAAAAAAAGAGGAGGGATGGTATACTTGTGGT [CACACA_negctrl_site986]	7.09
TTAAAGCTGACATATACACACATACATAAATTCATA [CACACA_site5377]	7.06

Sequence	gcPBM binding intensity (ln)
TATACATATATTATATGTACATATATATATAATATA [XGTACX_site2942]	7.26
GGACAAGTTTTTTACATAAATAAAAAAAATAAAAAA [XGTACX_negctrl_site125]	6.99
ATATATATATAATAAACACACAAATAGATATAACAT [CACACA_site3715]	8.39
CCCCCCCACAGACACACACACATACATACCACATAT [CACACA_site2306]	9
ATAATGTAGAACTAGAGTACATAAAAAAATAAACAT [XGTACX_site5205]	7.57
TTTTTTTTTTTTTTTTTTTGTCTTATATATTACGGA [CACACA_negctrl_site322]	6.89
GCTACACAATTTTTTAGTACACACATATAAATATAT [XGTACX_site3131]	7.34
TATATATTATCAAGTGGACACACGAAAAAAAGGAAA [CACACA_site3741]	7.09
TTTTTCATATTATACTTTTATATACATATATAAAAA [XGTACX_negctrl_site281]	7.23
TAAAGATTGTTCAGTGCATGTTGGCCTGTAAATGGA [TGCATGCA_site315]	7.59
GTAATTTTGAGATGATGTACATATTTTTTCCTTGTC [XGTACX_site4103]	7.01
TAAGATATATTTTTTTGTACACATAATAAAATAATA [XGTACX_site8938]	7.01
AAAAGAAACTTATTTACGCACACTTTATTGCATGTT [CACACA_site3887]	6.79
GATAAATCATATATAACACACATATGAATATTACAA [CACACA_site1321]	6.93
ATGTTATATATGTATTGTACGTATTTTGTATATTAT [XGTACX_site6607]	7.4
AGTGTTTTTTATAAAGTGCAATATAAAAACAAAATG	8.59
AATTTTTTTTTATTGTGTACTTATTTTTTTATATTT [XGTACX_site917]	7.44
TTTTATTTCATTTGTTGTACTTTCAAAATATTATTA [XGTACX_site2192]	7
AAGAATAAAGAATGGTGTACATGCATATAAAATATT [XGTACX_site5707]	7.01
CAACATATGCATATGTGTACATATTTTATTTTCAAC [XGTACX_site2237]	7.23
ACATACATATGTAAATGTACAAAATATCCATAGATT [XGTACX_site2782]	6.81
ATATACTCATTAATAACACACAATATGATAACAAAT [CACACA_site5913]	7.12
